For data set [1], the target named is T1, βAR34-424 (Meleagris gallopavo, UniProt P07700, C116L). As to the method:
FIG. 8 Saturation binding assays of membranes of βAR34-424 and βAR-m23. Binding assays were performed as described in “Methods” using [^3H]-dihydroalprenolol (DHA) as radioligand; βAR34-424 (a) and βAR-m23 (b). Scatchard plots are shown as insets along with the corresponding values for Bmax and KD. Data points are from duplicates of two independent experiments for each protein.
[…] . Saturation binding experiments to membranes using the antagonist. […] . This is consistent with the observation that none of the mutations in βAR-m23 correspond with amino acids believed to be implicated in ligand binding. […] . From a crystallisation perspective, this is an added bonus to thermostabilisation, because it is essential to have a conformationally homogeneous protein population for the production of diffraction-quality crystals.
For large-scale membrane preparations, 2 L and 6 L of E. coli culture of βAR and Mut23, respectively, were grown as described above. Cells were harvested by centrifugation at 5,000×g for 20 min, frozen in liquid nitrogen and stored at −80° C. […] The protein concentration was determined by the amido black method. […]
Non-specific binding was determined in the presence of 1 μM of s-propranolol. […]

Data set [2] deals with T1, βAR34-424. The arrangement: species or system turkey. The following applies: competition with [3H]-DHA at 3 x KD; read-out: EC50 for ligand binding.
The conditions of data set [3]: 0.5 h.
The nature of data set [4]: Stability of βAR-m23 and βAR34-424 in different detergents. In kind it is physicochemical. As to the method:
FIG. 6 Stability of βAR-m23 and βAR34-424 in five different detergents. […] Assays were carried out as described in the Methods and the Tm is shown at the intersection between the curves and the discontinuous line. Results are from duplicate measurements in a representative experiment performed in parallel.
All of the thermostability assays used to derive βAR-m23 were performed on receptors solubilised in DDM. The aim of the thermostabilisation process was to produce a receptor that is ideal for crystallography, which means being stable in a variety of different detergents and not just DDM. […] In contrast, functional βAR-m23 was still present in all detergents and the Tm could be determined. […]
Single point binding assays contained 20 mM Tris pH 8, 0.4 M NaCl, 1 mM EDTA, 0.1% DDM (or corresponding detergent) with 50 nM [^3H]-DHA and 20-100 μg membrane protein in a final volume of 120 μl; equilibration was for 1 h at 4° C. Thermostability was assessed by incubating the binding assay mix, with or without [^3H]-DHA at the specified temperature for 30 minutes; reactions were placed on ice and [^3H]-DHA added as necessary and equilibrated for a further hour. […] Non-specific binding was determined in the presence of 1 μM of s-propranolol. […] Radioactivity was counted on a Beckman LS6000 liquid scintillation counter and data were analyzed by nonlinear regression using Prism software (GraphPad).

Where a name gives a salt, the structure may show the parent alone. Read-outs that look alike come from different tables or passages of the source.

One may read the Kd as the constant that tells how readily two partners part at equilibrium. On to “1-[4,6-propyl-^3H]-dihydroalprenolol [[^3H]-dihydroalprenolol]”, for which the dissociation constant Kd is 2.8 ± 0.1 nM at βAR34-424 [1] (membranes, n=2) and 3.7 nM at βAR34-424 [1] (semipurified receptor).

Usually EC50 stands for the concentration that produces a half-maximal response. In the case of `C=CCc1ccccc1OC[C@@H](O)CNC(C)C` [alprenolol, (−) alprenolol tartrate salt], the EC50 at βAR34-424 [2] was 78 nM.

“βAR34-424: truncated turkey β1 adrenergic receptor, residues 34-424, C116L, C-terminal 10-histidine tag; parent receptor”: the “antagonist binding remaining after heating, compared to unheated control” value in data set [3] is on record as “approximately 50%”. Besides, in data set [4] (NG), the “predicted Tm” value was “about 5 °C”. The “active receptor after detergent exchange” value in data set [4] (resin washed with OG, NG or LDAO) is listed as “no active receptors”.

Source of the values: patent publication US8785135B2, “Mutant G-protein coupled receptors and methods for selecting them” (Heptares Therapeutics Limited, priority 2007, dated 2014).
